Data taken from patent US20110190235A1, “BORON-CONTAINING SMALL MOLECULES AS ANTIPROTOZOAL AGENTS” (Anacor Pharmaceuticals, Inc., priority 2009, published 2011).

Test system: LAB 110 Eatro strain of T. b. brucei
Experiment: Acute Murine Model A
Details: for Mean Survival Days: 4 days, BID, orally
Procedure: Female Swiss Webster mice were inoculated with 250,000 parasites of the LAB 110 Eatro strain of T. b. brucei. 24 hrs post-infection, treatment was initiated BID for 4 days with 20 mg/kg/dose (40 mg/kg/day) intraperitoneally (IP) or orally (P0), 5 mg/kg BID or 10 mg/kg BID orally (P0). N=3 mice/group. Mice were monitored for 30 days for survival. Pentamidine at 2 mg/kg IP was used as the positive control. After 10 days, 0% of the untreated mice were parasite free. After 10 days, 0% of mice treated with 6-(4-chlorophenylsulfinyl)benzo[c][1,2]oxaborol-1(3H)-ol were parasite free. After 30 days, 100% of mice treated with 10 mg/kg BID of N-(1-hydroxy-1,3-dihydrobenzo[c][1,2]oxaborol-6-yl)-2-(trifluoromethyl)benzamide were parasite free.

SMILES	Mean Survival Days (10 mg/kg) [days]	further results
[O-][S+](c1ccc(Cl)cc1)c1ccc2c(c1)B(O)OC2 (stereo not shown) [6-(4-chlorophenylsulfinyl)benzo[c][1,2]oxaborol-1(3H)-ol, reference compound]	–	mice parasite free after 10 days (after 10 days): 0%
O=C(Nc1ccc2c(c1)B(O)OC2)c1ccccc1C(F)(F)F [N-(1-hydroxy-1,3-dihydrobenzo[c][1,2]oxaborol-6-yl)-2-(trifluoromethyl)benzamide]	–	mice parasite free after 30 days (10 mg/kg BID, after 30 days): 100%
CC1OB(O)c2cc(NC(=O)c3ccc(F)cc3)ccc21 (stereo not shown) [compound 3, 4-Fluoro-N-(1-hydroxy-3-methyl-1,3-dihydro-benzo[c][1,2]oxaborol-6-yl)-benzamide]	18	–
CC1OB(O)c2cc(NC(=O)c3ccccc3Cl)ccc21 (stereo not shown) [compound 4, 2-Chloro-N-(1-hydroxy-3-methyl-1,3-dihydro-benzo[c][1,2]oxaborol-6-yl)-benzamide]	>30	–
COc1ccc(C(=O)Nc2ccc3c(c2)B(O)OC3C)cc1 (stereo not shown) [compound 5, N-(1-Hydroxy-3-methyl-1,3-dihydro-benzo[c][1,2]oxaborol-6-yl)-4-methoxy-benzamide]	>30	–
CC1OB(O)c2cc(NC(=O)c3ccc(Cl)cc3)ccc21 (stereo not shown) [compound 9, 4-Chloro-N-(1-hydroxy-3-methyl-1,3-dihydro-benzo[c][1,2]oxaborol-6-yl)-benzamide]	–	Mean Survival Days (20 mg/kg): 8 days
CC1(C)OB(O)c2cc(NC(=O)c3ccccc3Cl)ccc21 [compound 38, 2-Chloro-N-(1-hydroxy-3,3-dimethyl-1,3-dihydro-benzo[c][1,2]oxaborol-6-yl)-benzamide]	9	–
CC1(C)OB(O)c2cc(NC(=O)c3ccc(F)cc3Cl)ccc21 [compound 69, 2-Chloro-4-fluoro-N-(1-hydroxy-3,3-dimethyl-1,3-dihydro-benzo[c][1,2]oxaborol-6-yl)-benzamide]	>30	–
CC1(C)OB(O)c2cc(NC(=O)c3ccc(F)cc3C(F)(F)F)ccc21 [compound 82]	>30	–
O=C(Nc1ccc2c(c1)B(O)OC21CCC1)c1ccc(F)cc1Cl [compound 135]	8	–
